Data published in paper PMC13083723 (Patterns, 2026).
In all, about 5,400 compounds went through this assay and about 190 (3.5%) showed an effect of 50% or more. This is one part of the list.

Tested on: Vero-E6
Test: primary screen, phospholipidosis by LipidTOX staining; higher = more effect of the substance
Settings: 10 µM
Procedure, shortened: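 Single-concentration screen at 10 μM, with DMSO 0.1 v/v % and amiodarone 10 μM as controls. Read-out is LipidTOX Red phospholipid staining, which tolerates aldehyde fixation, in Vero-E6 cells.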

Row | Structure (SMILES) | result_ITMP
1 | CC(=O)Oc1ccccc1C(=O)Nc1ccccc1 | -0.15%
2 | O=C1N=C2SCCN2C(=O)C1Cc1ccc(Cl)cc1 (centres unmarked) | -5.73%
3 | CCC(C)(C)c1ccc(CC(C)CN2C[C@@H](C)O[C@@H](C)C2)cc1 (some centres unmarked) | -0.24%
4 | CCNC(=O)[C@@H]1CCCN1C(=O)[C@H](CCCNC(=N)N)NC(=O)[C@H](CC(C)C)NC(=O)[C@@H](CC(C)C)NC(=O)[C@H](Cc1ccc(O)cc1)NC(=O)[C@H](CO)NC(=O)[C@H](Cc1c[nH]c2ccccc12)NC(=O)[C@H](Cc1c[nH]cn1)NC(=O)[C@@H]1CCC(=O)N1 | -0.77%
5 | C[C@]12CC[C@H]3[C@@H](CCC4=CC(=O)CC[C@@]43C)[C@@H]1CC[C@@H]2C(=O)CO | -9.19%
6 | CCCCN1CCC(CNC(=O)c2c3n(c4ccccc24)CCCO3)CC1 | 0.9%
7 | Cc1ccccc1C(=O)Nc1ccc(C(=O)N2CCCC(N(C)C)c3ccccc32)cc1 (centres unmarked) | 20.6%
8 | C=C[C@@](C)(/C=C/c1ccc(O)cc1)CCC=C(C)C | -1.73%
9 | CCc1cccc(CC)c1N=C1NCCN1 | -5.43%
10 | Cc1ncccc1OC[C@@H]1CCCN1 | 8%
11 | C[N+]1(C)CCc2cc3c(cc2[C@H]1[C@@H]1OC(=O)c2c1ccc1c2OCO1)OCO3 | 1.06%
12 | CCCOc1ccc(Br)cc1-c1cc(-c2ccc(Cl)cc2)[nH]c1-c1ccncc1 | -4.46%
13 | NCCCCN | -4.38%
14 | CN(C)CCOc1cc(-c2cn[nH]c2)ccc1NC(=O)C1COc2ccccc2O1 (centres unmarked) | 18.2%
15 | C=CCn1c(=O)n([C@@H]2O[C@H](CO)[C@@H](O)[C@H]2O)c2nc(N)nc(O)c21 | -1.06%
16 | CN(Cc1ccc(C(C)(C)C)cc1)Cc1cccc2ccccc12 | 1.14%
17 | N=C(CC(O)COc1ccccc1-c1ccccc1)N1CCCCC1 (centres unmarked) | -1.97%
18 | O=C(NCCCNc1nc(Nc2cccc(NC(=O)N3CCCC3)c2)ncc1I)c1cccs1 | 18.5%
19 | CN1CC[C@@H](c2c(O)cc(O)c3c(=O)cc(-c4ccccc4Cl)oc23)[C@@H]1CO | 35.1%
20 | CC1(C)Oc2ccc(C#N)cc2[C@@H](OC2=CC(=O)CC2)[C@@H]1O | -4.63%
21 | CCCCCCCCNC(C)C(O)c1ccc(SC(C)C)cc1 (centres unmarked) | -0.91%
22 | CC(=O)CC(c1ccc([N+](=O)[O-])cc1)c1c(O)c2ccccc2oc1=O (centres unmarked) | -4.22%
23 | O=C(O)c1cc([N+](=O)[O-])ccc1NCCCc1ccccc1 | -0.35%
24 | S=c1[nH]cnc2nc[nH]c12 | -1.86%
25 | CC(C)(C)c1ccc(O)cc1 | -1.81%
26 | CNC(=S)C1(c2ccccn2)CCCS1 (centres unmarked) | -5.51%
27 | NS(=O)(=O)c1ccc(NC(=O)Nc2ccc(F)cc2)cc1 | -1.55%

Row | Structure (SMILES) | result_ITMP
28 | CCC(=O)c1ccc(OCC(O)CN2CCN(c3ccccc3)CC2)cc1 (centres unmarked) | -5.46%
29 | CN1CC[C@@H]2CN3CCc4cccc(c43)[C@@H]2C1 | 5.83%
30 | COc1cc(C(=O)NC2CCN(C)CC2)c(F)cc1Nc1ncc2c(n1)N(C1CCCC1)CC(F)(F)C(=O)N2C | 69.4%
31 | COc1ccc2c3c1O[C@H]1C[C@@H](O)C=C[C@@]31CCN(C)C2 | -3.23%
32 | O=C(CN1C(=O)C2(CCCC2)NC[C@H]1c1cc(F)cc(F)c1)Nc1ccc2c(c1)C[C@@]1(C2)C(=O)Nc2ncccc21 | -1.44%
33 | Cc1cc(F)c(Nc2ncnc3cc(OCc4ccccc4)ccc23)cc1O | -2.14%
34 | CC(C)[C@@H](N)C(=O)O | -0.03%
35 | CCCC(=O)O[C@]1(C(=O)CO)CC[C@H]2[C@@H]3CCC4=CC(=O)CC[C@]4(C)[C@H]3[C@@H](O)C[C@@]21C | -5.08%
36 | Cn1cncc1[C@@](N)(c1ccc(Cl)cc1)c1ccc2c(c1)c(-c1cccc(Cl)c1)cc(=O)n2C | 22%
37 | Cc1cc(C#N)cc(C)c1Oc1nc(Nc2ccc(C#N)cc2)nc(N)c1Br | 0.4%
38 | Cc1ccc(C23CNCC2C3)cc1 (centres unmarked) | 0.98%
39 | O=c1[nH]c(=O)n([C@H]2C[C@H](O)[C@@H](CO)O2)cc1C(F)(F)F | 0.71%
40 | c1cc(CN2CCCNCCNCCCNCC2)ccc1CN1CCCNCCNCCCNCC1 | -2.03%
41 | CN[C@H](CC(C)C)C(=O)N[C@H]1C(=O)N[C@@H](CC(N)=O)C(=O)N[C@H]2C(=O)N[C@H]3C(=O)N[C@H](C(=O)N[C@H](C(=O)O)c4cc(O)cc(O)c4-c4cc3ccc4O)[C@H](O[C@H]3C[C@](C)(N)[C@@H](O)[C@H](C)O3)c3ccc(c(Cl)c3)Oc3cc2cc(c3O[C@@H]2O[C@H](CO)[C@@H](O)[C@H](O)[C@H]2O[C@H]2C[C@](C)(NCc3ccc(-c4ccc(Cl)cc4)cc3)[C@@H](O)[C@H](C)O2)Oc2ccc(cc2Cl)[C@H]1O | 0.08%
42 | CC(=O)O[C@@H]1CC[C@@]2(C)[C@@H](CC[C@]3(C)[C@@H]2C(=O)C=C2[C@@H]4[C@@H](C)[C@H](C)CC[C@]4(C)CC[C@]23C)[C@@]1(C)C(=O)O | -0.39%
43 | CC(C)NC(=N)NC(=N)Nc1ccc(Cl)cc1 | -3.81%
44 | CC(C)n1cnc2c(NCCc3ccc(O)cc3)nc(-c3csc4ccccc34)nc21 | 4.27%
45 | O=C(NNc1ccccc1)c1ccncc1 | -2.28%
46 | CCCCC/C=C\C=C/CCCCCCCCC(=O)O | -3.09%
47 | COc1ccc2nc(S(=O)Cc3ncc(C)c(OC)c3C)[nH]c2c1 (centres unmarked) | 1.1%
48 | Cc1nc2c(O)cccc2c(=O)[nH]1 | -1.87%
49 | CC1CCc2cc(F)cc3c(=O)c(C(=O)O)cn1c23 (centres unmarked) | -2.22%
50 | O=C(NCC1CCCCN1)c1cc(OCC(F)(F)F)ccc1OCC(F)(F)F (centres unmarked) | -0.31%
51 | C[C@@H]([C@H](O)c1ccc(O)cc1)N1CCC(Cc2ccccc2)CC1.C[C@H]([C@@H](O)c1ccc(O)cc1)N1CCC(Cc2ccccc2)CC1 | 8.99%
52 | COc1cc(N2CCC(N3CCN(C)CC3)CC2)ccc1Nc1ncc(Cl)c(Nc2ccccc2S(=O)(=O)C(C)C)n1 | -2.93%
53 | N[C@@H](Cc1ccc(I)cc1)C(=O)O | -0.07%
